Assay results taken from PMC4336329 (PLoS ONE, 2015).
Screen size: about 310,000 compounds; about 2,200 (0.71%) showed an effect of 50% or more. The effect is printed as a negative number. Some of the results follow.

molecular target: human ether-à-go-go-related gene (hERG) potassium channel (human, UniProt Q12809); assay: primary screen, population patch clamp on CHO cells stably expressing hERG
Sequence (Q12809 whole entry, looked up): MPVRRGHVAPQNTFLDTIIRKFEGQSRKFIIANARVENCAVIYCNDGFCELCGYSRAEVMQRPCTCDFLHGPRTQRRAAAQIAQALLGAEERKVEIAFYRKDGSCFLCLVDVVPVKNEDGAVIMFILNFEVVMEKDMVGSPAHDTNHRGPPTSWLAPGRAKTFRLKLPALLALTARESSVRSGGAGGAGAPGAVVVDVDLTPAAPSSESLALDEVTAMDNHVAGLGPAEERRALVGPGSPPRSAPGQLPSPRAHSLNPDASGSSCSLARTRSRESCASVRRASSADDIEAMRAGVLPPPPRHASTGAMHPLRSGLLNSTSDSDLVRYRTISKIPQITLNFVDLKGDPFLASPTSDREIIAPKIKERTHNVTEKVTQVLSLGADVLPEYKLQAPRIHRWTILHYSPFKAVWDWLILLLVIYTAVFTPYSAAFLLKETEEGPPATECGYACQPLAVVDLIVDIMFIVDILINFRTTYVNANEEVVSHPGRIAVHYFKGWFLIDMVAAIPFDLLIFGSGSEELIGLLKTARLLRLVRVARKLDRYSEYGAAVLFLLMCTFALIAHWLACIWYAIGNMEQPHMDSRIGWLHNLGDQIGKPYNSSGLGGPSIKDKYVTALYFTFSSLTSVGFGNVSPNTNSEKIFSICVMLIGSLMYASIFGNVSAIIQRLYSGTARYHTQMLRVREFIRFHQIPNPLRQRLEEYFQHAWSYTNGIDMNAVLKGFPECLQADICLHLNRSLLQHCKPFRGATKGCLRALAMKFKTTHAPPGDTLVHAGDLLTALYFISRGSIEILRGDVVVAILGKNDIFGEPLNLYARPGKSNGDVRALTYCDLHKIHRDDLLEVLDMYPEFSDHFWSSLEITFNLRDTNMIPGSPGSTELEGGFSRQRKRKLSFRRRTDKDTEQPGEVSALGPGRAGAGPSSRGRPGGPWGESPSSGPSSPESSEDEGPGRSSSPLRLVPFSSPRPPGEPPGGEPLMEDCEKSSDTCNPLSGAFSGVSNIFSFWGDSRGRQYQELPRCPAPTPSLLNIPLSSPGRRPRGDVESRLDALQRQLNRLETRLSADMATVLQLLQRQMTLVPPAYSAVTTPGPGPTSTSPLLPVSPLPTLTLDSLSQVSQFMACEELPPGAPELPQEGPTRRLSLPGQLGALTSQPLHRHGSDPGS

| SMILES | hERG current change (%, negative = inhibition) at 1uM [%] |
| --- | --- |
| COc1cccc(NC(=O)CN(C2=NC3CS(=O)(=O)CC3S2)c2cccc(C)c2)c1 (stereo not shown) | 0.133 |
| O=C(O)CCn1nc(-c2ccc(F)cc2)cc(Cc2ccccc2)c1=O | 10.2 |
| O=C(CNC(=O)c1ccco1)N/N=C/c1ccccc1[N+](=O)[O-] | 13.7 |
| CCOC(=O)CC(NC(=O)c1ccc(C)cc1)c1ccc(OC)cc1 (stereo not shown) | 6.79 |
| Cc1cccc(N2CCN(CCCNC(=O)c3ccc(NC(=O)C4=CSCCO4)cc3)CC2C)c1 (stereo not shown) | 11.3 |
| Cc1cc(S(=O)(=O)N2CCOCC2)ccc1OCC(=O)N1CCCCC1 | 14.9 |
| NC1=NC(=O)C(CC(=O)NCc2ccccc2)S1 (stereo not shown) | 13.7 |
| CCN=C1SC(CC(=O)NCC)C(=O)N1CC (stereo not shown) | -6.35 |
| COc1ccc(NC(=S)N2CCCN(Cc3cc(C)ccc3C)C2)cc1 | 7.85 |
| Cc1ccc2ncc([N+](=O)[O-])n2c1 | 6.16 |
| COC(=O)c1ccccc1NC(=O)CSc1nnc(-c2ccncc2)o1 | 10.8 |
| Cc1ccc(C(=O)NC2CCN(C(=O)N3CCOCC3)CC2)cc1 | 5.1 |
| O=C(COC(=O)CCCC1=NS(=O)(=O)c2ccccc2N1)Nc1ccccc1 | 19.2 |
| CCOC(=O)c1ccc(NC(=O)CC2C(=O)N(c3ccc(F)cc3)C(=O)N2CCC(C)C)cc1 (stereo not shown) | 2.19 |
| O=C1CC(Sc2nnnn2-c2ccccc2)C(=O)N1c1cccc(Cl)c1 (stereo not shown) | 8.11 |
| Cc1occc1-c1nnc(SCC(=O)Nc2ccccc2)n1C(C)c1ccccc1 (stereo not shown) | 1.46 |
| Cc1cc(NC(=O)NC(=O)c2cccc(OC(F)(F)C(F)F)c2)n[nH]1 | 5.74 |
| CCCC(=O)Nc1ccc2c(c1)C(=O)N(CCC(=O)O)C2=O | 3.16 |
| O=C(CC1Nc2ccccc2NC1=O)NCCCN1CCCCCC1 (stereo not shown) | 7.59 |
| N#C/C(=C\c1c[nH]c2ccc(Br)cc12)c1ccccn1 | 21.1 |
| CCc1ccccc1NC(=S)N(CCN1CCCCC1)Cc1ccco1 | -5.08 |
| Cc1ccc(NC(=S)NC(=O)c2ccc(F)cc2)cc1S(=O)(=O)Nc1ccccc1Cl | -3.96 |
| CC(C)(C)c1ccc(C(=O)NCCOc2ccccc2)cc1 | 8.32 |

| SMILES | hERG current change (%, negative = inhibition) at 1uM [%] |
| --- | --- |
| CCc1cc(C(=O)Nc2ccccc2)cs1 | -1.52 |
| O=C(Nc1ccccc1F)Nc1cc(Cl)ccc1-n1cncn1 | 14.5 |
| Cc1onc(-c2ccccc2)c1C(=O)NCCc1ccc(S(N)(=O)=O)cc1 | 10.5 |
| Cc1ccccc1NC(=O)Cn1nc(C)c2ccccc2c1=O | 10.9 |
| COc1ccc2nc(SCC(=O)N(C)C3CCCCC3)[nH]c2c1 | 12.6 |
| C/C(=N\NC(=O)Cc1cccc2ccccc12)c1ccncc1 | 2.97 |
| CCn1nc(C)cc1C(=O)OCC(=O)c1ccc(Cl)cc1 | 7.13 |
| COc1cc(OC)cc(C(=O)Oc2ccc(/C=N/Nc3nc4ccccc4s3)cc2OC)c1 | 0.482 |
| COc1ccc(-c2[nH]ncc2CN(CCO)Cc2cccs2)c(F)c1 | 5.85 |
| Cc1cccc(C(=O)NC2CCN(C(=S)NCc3ccco3)CC2)c1 | -6.66 |
| O=C(CCl)Nc1ccc2c(c1)OCO2 | 10.3 |
| O=C(COc1ccc(S(=O)(=O)N2CCOCC2)cc1Cl)NCCN1CCOCC1 | 11.9 |
| O=C(Nc1ccc(CN2CCS(=O)(=O)CC2)cc1)c1ccccc1 | 10.3 |
| Cc1cc(C(=O)N/N=C/c2cn[nH]c2-c2ccccc2)cs1 | 1.1 |
| Cc1ccc(NC(=O)C2COc3ccccc3O2)nc1 (stereo not shown) | 10.5 |
| Cc1nc2ccccc2n1CC(=O)N/N=C/c1cccnc1 | 8.32 |
| O=C(NC(=S)NC1CCSC1=O)c1cccc([N+](=O)[O-])c1 (stereo not shown) | 15.1 |
| Cc1nc2ccccc2n1CCc1ccccc1 | 3.48 |
| Cc1ccnc(N2CCC(C(=O)NCc3ccccc3F)CC2)n1 | 13.8 |
| CC1(C)CC(=O)c2c(O)cc(OCC(=O)N3CCN(c4ccc(F)cc4)CC3)cc2O1 | -7.25 |
| CC1CCc2cc(F)ccc2N1C(=O)CCC(=O)O (stereo not shown) | 6.02 |
| O=C(CN1C(=O)S/C(=C\C=C\c2ccccc2)C1=O)Nc1cccc(O)c1 | -2.27 |
| CCOC(=O)c1c(NC(=O)CSc2nnc(N)s2)sc(C)c1-c1ccc(C)cc1 | 15 |

| SMILES | hERG current change (%, negative = inhibition) at 1uM [%] |
| --- | --- |
| Cc1nn(-c2ccccc2)c(-c2ccccc2)c1C(=O)O | 7.3 |
| COc1ccc(C(C(=O)NC2CCCC2)N(CCN(C)C)C(=O)c2snc(C(N)=O)c2N)cc1 (stereo not shown) | -9.1 |
| Cc1cc(Cl)ccc1OCC(=O)NNC(=O)c1cccs1 | 15 |
| CSCCC(NS(=O)(=O)c1ccc(Cl)cc1)C(=O)OCC(=O)N1CCOCC1 (stereo not shown) | -3.72 |
| CC1CCC(NC(=S)NCCN(C)C)CC1 (stereo not shown) | 13.4 |
| O=C1/C(=C/c2cccc(Br)c2)SC(=S)N1CCC(=O)N(CCO)c1ccccc1 | 13.6 |
| Cc1c(NC(=S)NC(=O)C(C)(C)C)cccc1[N+](=O)[O-] | 5.79 |
| CCOc1ccc(CCNC(=O)c2cnc(C)cn2)cc1OCC | 8.1 |
| O=C(c1cc(-c2ccccc2O)on1)N1CCCCCC1 | -35.2 |
| CCOc1cc(/C=C2\SC(=O)N(CC(=O)Nc3ccccc3F)C2=O)cc([N+](=O)[O-])c1O | 10.2 |
| COc1ccccc1N1CCN(CC(=O)Nc2nccs2)CC1 | 1.33 |
| O=C(COc1ccc2ccc(=O)oc2c1)Nc1ccc2c(c1)OCCO2 | -0.116 |
| CC(=O)Nc1ccc(S(=O)(=O)NCCc2ccccc2)cc1 | 7.12 |
| CCCCSCCCNC(=O)c1ccc2c(c1)N(CC)C(=O)c1ccccc1S2=O (stereo not shown) | 5.8 |
| CCOC(=O)c1cnc2c(C(=O)OC)cccc2c1NCc1ccco1 | -71.4 |
| O=C(NC1Cc2ccccc2C1)c1cc(COc2cccc(C(F)(F)F)c2)on1 | 15.8 |
| Cc1ccc(N/N=C2\CS(=O)(=O)N(C)c3ccsc32)cc1 | 12.4 |
| COc1ccc(-c2csc(Nc3cc(C)ccn3)n2)cc1OC | 16.2 |
| O/C(=C\c1nc2ccccc2[nH]1)c1cccs1 | 0.259 |
| COC(=O)c1ccsc1NC(=O)CCS(=O)(=O)c1ccc(Cl)cc1 | 8.15 |
| O=C(N1CCOCC1)N(Cc1cccs1)C1CCCC1 | 6.53 |
| Cc1ccc(Sc2cc(C(=O)c3ccccc3C(=O)O)ccc2[N+](=O)[O-])cc1 | 13.8 |
| COc1ccc(NS(=O)(=O)c2cccs2)c(OC)c1 | 0.658 |

| SMILES | hERG current change (%, negative = inhibition) at 1uM [%] |
| --- | --- |
| COC(=O)C1=C[C@@H](C(=O)OC)C2C3=C(C(=O)C24CCCCC4)[C@H](C)n2c(=O)n(C)c(=O)n2[C@@H]3C1 (stereo partly shown) | 14.6 |
| COc1ccccc1CNC(=O)COC(=O)c1ccc(C)c(S(=O)(=O)N2CCOCC2)c1 | 7.91 |
| CCOC(=O)C1(C(F)(F)F)N=C(c2ccccc2F)OC(N(C)C)=N1 (stereo not shown) | 7.37 |
| Cc1ccc(S(=O)(=O)NC(=NCC(=O)O)c2ccccc2)cc1 | 6.82 |
| O=C(Cc1c(Cl)cccc1Cl)Nc1ccncc1 | 0.578 |
| CCC1(C)Cc2ccccc2-c2nc3n(c(=O)c21)CC(C(=O)O)S3 (stereo not shown) | 12.1 |
| Cc1ccc(N(O)C(=O)OCCNC(=O)Nc2ccccc2)cc1 | 10.3 |
| COc1ccnc(Oc2ccccc2)c1C#N | 6.34 |
| CCn1c(-c2nn(-c3ccc(C)cc3)ccc2=O)n[nH]c1=S | 2.46 |
| O=C1c2ccccc2NC(c2cc(Cl)cc(Cl)c2O)N1Cc1cccnc1 (stereo not shown) | 6.13 |
| Cc1ccc(C(=O)C(C)OC(=O)C2CCN(c3ccc(C(F)(F)F)cn3)CC2)cc1C (stereo not shown) | 10.6 |
| Cc1cccc(OCCSc2nc(N)cc(N)n2)c1 | 11 |
| CC(C)(C)C(=O)Oc1cc(N)n(S(=O)(=O)c2ccccc2)n1 | 7.51 |
| CCOC(=O)CSc1snnc1-c1ccccc1 | 11.4 |
| CN1C(C(=O)NCCc2cccs2)CC2Cn3c(nc4cc5ccccc5cc43)C21 (stereo not shown) | -21.4 |
| COc1ccc(C(=O)CCNc2ccc(F)cc2)cc1 | 9.93 |
| CC(=O)c1ccc(OC(=O)CCc2nc3ccccc3s2)cc1 | 11.7 |
| CCOc1cc2c(cc1OCC)-n1cccc1C(c1ccc(OC)c(O)c1)NC2.Cl (stereo not shown) | 0.376 |
| COc1ccccc1CCc1nnc(CCC(=O)NCCCOc2cccnc2)o1 | 9.05 |
| Cc1ccc(CSc2nc3ccncc3n2CC(=O)Nc2cc(C)cc(C)c2)cc1 | 11.8 |
| CC(C)Oc1ccc(C(=O)Nc2cccc3cccnc23)cc1 | 6.11 |
| O=C(NNC(=S)Nc1ccc(Br)cc1)c1ccc(N2CCOCC2)c([N+](=O)[O-])c1 | 10.1 |
